Experimental findings from PubChem BioAssay (NCI) are described below.

Test systems include DU-145 prostate; KM12 colon; HCT-116 colon; SK-MEL-28 melanoma; SNB-75 CNS; MDA-N; COLO 205 colon; NCI-H460 lung; NCI/ADR-RES ovarian; SW-620 colon; MDA-MB-231 breast; U251 CNS; OVCAR-8 ovarian; K-562 leukemia; SR leukemia; OVCAR-3 ovarian; NCI-H226 lung; UO-31 renal; SN12C renal; RPMI-8226 leukemia; MOLT-4 leukemia; KM20L2 colon; OVCAR-4 ovarian; CCRF-CEM leukemia; CAKI-1 renal; T-47D breast; M14 melanoma; SK-MEL-5 melanoma; UACC-62 melanoma; RXF 393 renal; HS 578T breast; MDA-MB-435; SF-295 CNS; MCF7 breast; SK-MEL-2 melanoma; 786-0 renal; HOP-92 NSCLC; NCI-H23 lung; BT-549 breast.

Common to all, as to assay: DTP human tumour cell line panel, 48 h

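Each compound was tested at five concentrations against cells in 96-well plates for 48 hours. GI50 is the concentration that inhibits growth by half.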 Not every entry of the source has a single result; some have several. The other results are left out here. The source may hold further records. For part of these data: A record mostly stands for its own series of concentrations, not given here; some values may only mark the edge of a range. A tag in brackets gives the origin of a value. The letters are not those of the source and start again with each entry. For part of these data: The records of an entry are repeats (runs, samples, wells, individuals or studies).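 Definition used: TGI = concentration required for complete inhibition of growth.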

Regarding `Cc1ccnc(Nc2ccc([N+](=O)[O-])c(NCCN3CCOCC3)n2)c1`, the TGI was 454 nM and > 100 µM in the test on DU-145 prostate; 434 nM and 14.5 µM with KM12 colon; 278 nM and > 100 µM in the test with HCT-116 colon. In the test on SK-MEL-28 melanoma, the GI50 was 179 nM and 12.7 µM.
On to `C=C(Cl)[C@@](Cl)(CBr)CC[C@@H](Br)C(C)(C)Cl`, for which the TGI in the test on SNB-75 CNS was 19.2 µM and 885 nM; in the test on MDA-N it was 20.5 µM and 1.19 µM; in the test with COLO 205 colon it was > 100 µM and 1.5 µM; in the test on NCI-H460 lung, 4.39 µM and 210 nM; with NCI/ADR-RES ovarian, 24.4 µM and 1.2 µM; in the test with SW-620 colon, > 100 µM and 731 nM. The TGI is 50.3 µM and 568 nM in the test with MDA-MB-231 breast; 23.5 µM and 333 nM in the test with U251 CNS; > 100 µM and 1.47 µM in the test on SK-MEL-28 melanoma; 21.6 µM and 1.17 µM in the test with OVCAR-8 ovarian.
Consider `CCC(=C/[C@H](C)C/C=C/C(C)=C/[C@@H](C)C(=O)[C@@H](C)[C@H](O)[C@@H](C)CC)/C=C/[C@H]1CC=CC(=O)O1`, for which the TGI in the test on K-562 leukemia is 1.58 µM and > 100 µM; with SR leukemia, < 1.2 nM and > 100 µM; in the test on OVCAR-3 ovarian, < 1.2 nM and 1.4 µM; in the test with NCI-H226 lung, 1.72 µM and 106 nM; with UO-31 renal, 127 nM and 12 µM; in the test with KM12 colon it was 5.13 µM and 162 nM. Further, the TGI is < 1.2 nM and 9.21 µM in the test on MDA-MB-231 breast; 1.26 µM and 14.7 µM in the test with SN12C renal; 23.5 nM and > 100 µM in the test on RPMI-8226 leukemia; < 1.2 nM and > 100 µM in the test on MOLT-4 leukemia.
On to `CC(=O)OCC1OC(n2c(=S)n(-c3ccccc3)c(=O)c3cc(Br)cc(Br)c32)C(OC(C)=O)C(OC(C)=O)C1OC(C)=O` (centres undefined), for which the GI50 in the test on KM20L2 colon was 6.75 µM [sample A, 1 test] and > 100 µM [sample B, 1 test]. The TGI with OVCAR-4 ovarian was 8.37 µM [sample A, 1 test] and > 100 µM [sample B, 1 test].
As to `O=NN(CCCl)C(=O)NC1CCCCC1`, the TGI in the test with SR leukemia was 5.79 µM [1 test] and 88.7 µM [mean of 5 tests].
Take `CC(C)=CCCC1(C)C2COC(=O)C21` (centres undefined): the GI50 in the test on K-562 leukemia was > 100 µM [sample A, 1 test] and 5.89 µM [sample B, 1 test]; in the test with RPMI-8226 leukemia, > 100 µM [sample A, 1 test] and 490 nM [sample B, 1 test].
Regarding `Nc1nc(=S)c2[nH]cnc2[nH]1`, the TGI with CCRF-CEM leukemia was 31 µM, 835 nM [sample A] and > 100 µM [sample B]; with CAKI-1 renal it was 1.9 µM, 19.7 µM, 49.2 µM [sample A] and 2.3 µM [sample B]; in the test on MDA-N, 6.18 µM, 29.8 µM, > 250 µM; in the test with T-47D breast, 34.6 µM, 108 µM, 47.6 µM [sample A] and 30.7 µM [sample B]; in the test on M14 melanoma it was 46.1 µM, 14.6 µM, 69.9 µM [sample A] and 6.05 µM [sample B]; in the test with SK-MEL-5 melanoma, 18.9 µM, 16.9 µM, 31 µM [sample A] and 5.09 µM [sample B]. Further, the TGI in the test with UACC-62 melanoma was 1.71 µM, 4.96 µM, > 49.3 µM [sample A] and 1.55 µM [sample B]; with RXF 393 renal, 8.83 µM, 8.62 µM, 16.8 µM [sample A] and 5.08 µM [sample B]; in the test with HS 578T breast it was 81.3 µM, 147 µM, > 171 µM [sample A] and > 100 µM [sample B]; in the test with NCI/ADR-RES ovarian it was 14.1 µM, 44 µM, 15.5 µM [sample A] and > 59.5 µM [sample B]; in the test on UO-31 renal, 17.4 µM, 35.7 µM, 722 nM [sample A] and 31.5 µM [sample B]; in the test on SW-620 colon, 141 µM, 3.19 µM [sample A] and > 100 µM [sample B]. Further, the TGI is 10.5 µM, 39.1 µM, 2.18 µM [sample A] and 9.8 µM [sample B] in the test on MDA-MB-435; 27.5 µM, 31.4 µM, 125 µM [sample A] and > 25.7 µM [sample B] in the test on KM12 colon; 16.2 µM, 16.8 µM, 1.68 µM [sample A] and 9.03 µM [sample B] in the test on HCT-116 colon; 177 µM, > 250 µM [sample A] and 909 nM [sample B] in the test with SF-295 CNS; 6.22 µM, 57.6 µM, > 102 µM [sample A] and 22.5 µM [sample B] in the test with MCF7 breast; 17.3 µM and 739 nM in the test with MOLT-4 leukemia. The TGI in the test on OVCAR-8 ovarian was 49.3 µM, 60.9 µM, 11.4 µM [sample A] and > 100 µM [sample B]; in the test on SK-MEL-2 melanoma, 7.56 µM, 11.8 µM, > 180 µM [sample A] and 6.98 µM [sample B]; in the test with 786-0 renal, 108 µM, 39.1 µM [sample A] and 8.23 µM [sample B]; in the test on NCI-H23 lung, 28.6 µM, 24.7 µM, 10.2 µM [sample A] and > 35.7 µM [sample B]; with BT-549 breast, 28.4 µM, 176 µM, 14.6 µM [sample A] and > 100 µM [sample B]. Further, the GI50 with SNB-75 CNS was 1.04 µM [sample A, 1 test] and 4.25 µM [sample A, mean of 2 tests] and 405 nM [sample B, mean of 2 tests]; in the test with HOP-92 NSCLC, 1.77 µM [sample A, 1 test] and 1.62 µM [sample A, mean of 2 tests] and 154 nM [sample B, 1 test].

Usually GI50 stands for the concentration at which growth is held to half of that of the control. Lower therefore signals greater sensitivity of the cells.
